Hit rate of the full screen: of about 110,000 compounds, about 230 (0.21%) showed an effect of 50% or more. The list shows a part of the results.
What follows are compounds tested against DPAP1 (Plasmodium falciparum, UniProt Q8IIJ9) (assay: primary screen, percent inhibition; read by cleavage of a fluorogenic dipeptide substrate; higher = more effect of the substance).
Design: species or system P. falciparum D10 trophozoite lysates; single well
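Further: 30 min substrate incubation versus DMSO and 10 µM JCP410 controls.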

Chain of DPAP1 (Q8IIJ9 whole entry, looked up): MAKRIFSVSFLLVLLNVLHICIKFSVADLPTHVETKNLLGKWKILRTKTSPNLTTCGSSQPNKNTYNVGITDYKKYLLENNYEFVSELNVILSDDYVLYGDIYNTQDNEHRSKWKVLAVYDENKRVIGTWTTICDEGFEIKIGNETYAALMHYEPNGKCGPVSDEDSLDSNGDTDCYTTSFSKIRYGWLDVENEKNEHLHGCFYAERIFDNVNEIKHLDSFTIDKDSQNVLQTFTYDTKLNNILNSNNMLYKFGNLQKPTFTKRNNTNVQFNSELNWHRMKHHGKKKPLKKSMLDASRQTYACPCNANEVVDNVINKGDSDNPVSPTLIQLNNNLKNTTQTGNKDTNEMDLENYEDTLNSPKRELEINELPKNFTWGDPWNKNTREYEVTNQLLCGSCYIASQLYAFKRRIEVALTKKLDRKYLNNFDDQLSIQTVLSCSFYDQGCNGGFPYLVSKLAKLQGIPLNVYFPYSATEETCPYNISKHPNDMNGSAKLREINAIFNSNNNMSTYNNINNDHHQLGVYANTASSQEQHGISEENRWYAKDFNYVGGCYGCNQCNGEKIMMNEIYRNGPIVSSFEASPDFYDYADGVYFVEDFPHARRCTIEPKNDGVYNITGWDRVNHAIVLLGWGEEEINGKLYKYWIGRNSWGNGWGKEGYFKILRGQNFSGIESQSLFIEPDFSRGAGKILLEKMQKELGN

SMILES	% Inhibition @ 10 uM [%]
Cc1ccc2c(c1)-c1onc(C(=O)NCCCN3CC(C)CC(C)C3)c1CO2 (stereo not shown)	1.91
Cc1ccc(Cl)cc1NC(=O)CN1C(=O)S/C(=C/c2ccc3c(c2)n(C)c(=O)n3C)C1=O	4.69
OC1CSc2nc3ccccc3n2C1 (stereo not shown)	7.62
CCC(C)c1ccc(NC(=O)c2cccnc2)cc1 (stereo not shown)	-0.856
COc1cc(C2c3cc4c(cc3OC3(O)CCCC23)OCO4)cc(OC)c1OC (stereo not shown)	5.94
Cc1ccc(OCC(=O)NC2CCCCC2)c(Br)c1	-2.3
O=C(c1ccc(Br)cc1)N1CCN(c2ncccn2)CC1	1.57
Cc1cc(C)cc(NC(=O)CSc2ccccc2)c1	3.05
Cc1nc2ncnn2c(C)c1CCC(=O)NC(C)c1cccs1 (stereo not shown)	-6.03
COc1cccc(C2=NS(=O)(=O)N(C)C(C(=O)N(C)C3CCCCC3)=C2)c1	8.44
CCn1c(NCc2cccc(OC)c2OC)nc2ccccc21	3.24
CCCCN1C(=O)CN(C2CCCCC2)C(=O)C1c1ccc(OCCC)c(OC)c1 (stereo not shown)	5.99
Cc1cccc(-c2nc(CS(=O)CC(=O)NCc3ccccc3)c(C)o2)c1 (stereo not shown)	2.37
O=C1CC(c2ccc(Cl)c(Cl)c2)c2cc3c(cc2N1)OCO3 (stereo not shown)	2.49
Cc1ccc(C(=O)N(Cc2cccs2)C2CCS(=O)(=O)C2)cc1 (stereo not shown)	3.29
NC(=O)c1c(NC(=O)CCc2ccccc2)sc2c1CCCC2	-2.8
C=CCn1c(-c2ccc(OC)cc2)cs/c1=N\c1ccc(NC(C)=O)cc1	0.00477
N#Cc1c(O)nc(S)nc1-c1cccc(Br)c1	-1.75
O=C(c1sc2cc(F)ccc2c1Cl)N1CCOCC1	4.17
COc1cccc2sc(N(CCCN(C)C)C(=O)c3ccccc3Cl)nc12	2.5
COc1ccc(-n2c(-c3ccccc3)c(C#N)c(O)c(Cc3ccccc3)c2=O)cc1	2.32
Cc1ccc(C(=O)/N=C(\N)Nc2nc3ccccc3s2)cc1	-1.41
CN1C(=O)C(=Cc2cc(Cl)cc(Cl)c2O)C(=O)N(C)C1=O	-2.44
O=C(Nc1cccc(C(F)(F)F)c1)C(O)c1ccccc1 (stereo not shown)	4.04
Cc1nc2c(c(C)nn2C(C)(C)C)c(C)c1CCC(=O)NCc1ccccc1Cl	-0.72
Brc1ccc2nc(Nc3ccccn3)nc(-c3ccccc3)c2c1	1.24
Cc1ccccc1S(=O)Cc1ccc(C(=O)NCCN2CCOCC2)o1 (stereo not shown)	3.88
Cc1onc(-c2c(Cl)cccc2Cl)c1C(=O)Nc1ccc(OCc2ccccc2)cc1	2.78
